Source: PubChem BioAssay AID1745853 (National Center for Advancing Translational Sciences (NCATS), 2022)
The other results are listed elsewhere or left out. Further columns of the screen follow, without active or inactive calls.

Experiments:
Assay in all cases: Primary Screen for Target Class Profiling of Small Molecule Inhibitors of Methyltransferases
[1] = target: Glycine N-methyltransferase (Homo sapiens) (UniProt Q14749); conditions: purified enzyme, MTase-Glo SAH luminescence; measured here: GNMT inhibition; at 40 µM; stronger effect = lower value
Method in brief: (§1)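 Each enzyme was assayed with SAM and its substrate. SAH formation detected by MTase-Glo luminescence; single-point 40 uM screen[…].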

[2] = target: Guanidinoacetate N-methyltransferase (Homo sapiens) (UniProt Q14353); conditions: purified enzyme, MTase-Glo SAH luminescence; measured here: GAMT inhibition; at 40 µM; stronger effect = lower value
Method in brief: as §1

[3] = target: Histamine N-methyltransferase (Homo sapiens) (UniProt P50135); conditions: purified enzyme, MTase-Glo SAH luminescence; measured here: HNMT inhibition; at 40 µM; stronger effect = lower value
Method in brief: as §1

[4] = target: Nicotinamide N-methyltransferase (Homo sapiens) (UniProt P40261); conditions: purified enzyme, MTase-Glo SAH luminescence; measured here: NNMT inhibition; at 40 µM; stronger effect = lower value
Method in brief: as §1

[5] = target: Phenylethanolamine N-methyltransferase (Homo sapiens) (UniProt P11086); conditions: purified enzyme, MTase-Glo SAH luminescence; measured here: PNMT inhibition; at 40 µM; stronger effect = lower value
Method in brief: as §1
% is scaled to controls: 0 for no effect and ±100 for the full control effect.

Structure (SMILES) | activity change, negative = inhibition [1] [%] | activity change, negative = inhibition [2] [%] | activity change, negative = inhibition [3] [%] | activity change, negative = inhibition [4] [%] | activity change, negative = inhibition [5] [%]
Cc1cccc(C2CCCN(C(=O)c3cn(CCc4ccccc4)nn3)C2)c1 (stereo not given) | -4.77 | -2.86 | -4.41 | -7.13 | -9.39
COc1ccc(Cn2c(=O)c3ccccc3n3c(-c4ccccc4OC)nnc23)cc1 | -0.437 | 1.41 | 2.54 | 4.54 | 1.2
CCC(C)CNCC(=O)N1CCc2sccc2C1COc1cccc(C)c1 (stereo not given) | 4.78 | 19.2 | 7.84 | -18.9 | 3.2
CC(C)CNC(=O)c1ccc2c(=O)n(CC(C)C)c3nnc(SCC(N)=O)n3c2c1 | 3.44 | 0.236 | 4.82 | 5.42 | 5.9
CSc1ccc(CCNC(=O)c2cc3n(n2)CC(C)(C(=O)NCCC(C)C)N(C)C3=O)cc1 (stereo not given) | -1.38 | 0 | 2.35 | -3.77 | -2.29
C/C=C(\C)C(=O)OC1C(C)C2(O)C(C=C(CO)CC3(O)C(=O)C(C)=CC32)C2C(C)(C)C12OC(=O)C(C)C (stereo not given) | -2.86 | -9.35 | 4.1 | -20.8 | -5.39
CCc1nncn1C1CCN(C(=O)c2cc(-c3cccs3)[nH]n2)C1 (stereo not given) | -15.6 | -7.85 | -4 | -15.3 | -4.02
COc1ccc(OC)c2c1cc1n2CC(C)(C(=O)NC2CCCC2)N(CCN2CCOCC2)C1=O (stereo not given) | -0.14 | 0 | 10.7 | 10.6 | 3.18
O=c1cc(CN2CCOCC2)occ1OCCCCCSc1ccnc2cc(C(F)(F)F)ccc12 | -28.2 | -8.17 | -7.27 | -33.4 | -7.06
Cc1ccccc1N1C(=O)c2cc3ccccc3n2CC1(C)C(=O)NCCC(C)C (stereo not given) | 3.93 | 0.688 | 5.87 | 5.68 | 1.99
CCOC(=O)c1cc2n(n1)CC(C)(C(=O)NC1CCCCCC1)N(c1ccc(C)cc1C)C2=O (stereo not given) | 8.91 | 1.76 | 6.41 | 12.1 | 7.33
COc1ccc(/C=C2\COc3ccc(C)cc3C2=O)cc1O | -33.2 | 7.73 | -3.47 | -17.9 | 2.09
Cc1ccc(-c2coc(-c3ccc(NS(=O)(=O)c4ccc5c(c4)n(C)c(=O)n5C)cc3)n2)c(C)c1 | 6.49 | 0 | 5.35 | -3.12 | 0.61
COc1cccc(CN2CCOC3CCN(Cc4ccccc4Cl)CC3C2=O)c1 (stereo not given) | -7.63 | -5.84 | -5.5 | -11.8 | -3.24
CCc1ccc(NC(=O)CSc2nnc3n(CC(C)C)c(=O)c4ccccc4n23)cc1 | -20.7 | -7.24 | 7.89 | -16.2 | -3.73
COC(=O)c1cc2n(n1)CC(C)(C(=O)NC1CCCCCC1)N(c1cc(OC)cc(OC)c1)C2=O (stereo not given) | -4.07 | -0.067 | -2.58 | -5.77 | -4.51
COc1ccc(C(=O)NC[C@H]2O[C@@H](CC(=O)N3CCN(c4ccccc4)CC3)[C@H](O)[C@@H]2O)cc1 | -8.1 | -8.68 | -5.28 | -0.349 | -7.05
COC1=C(OC)C(=O)c2ccccc2C1=O | -40.9 | -13.3 | -13.4 | -17.7 | -9.96
C/C=C1/CC2C(=O)Nc3cc(O)c(OC)cc3C(=O)N2C1 (stereo not given) | 0.268 | -1.44 | 8.67 | -13 | 3.79

Structure (SMILES) | activity change, negative = inhibition [1] [%] | activity change, negative = inhibition [2] [%] | activity change, negative = inhibition [3] [%] | activity change, negative = inhibition [4] [%] | activity change, negative = inhibition [5] [%]
CCCn1c(=O)c2cc(Cl)ccc2n2c(=O)n(CC(=O)Nc3ccc(F)cc3)nc12 | -7.8 | 0 | 5.37 | -7.92 | -7.42
COc1ccc(-c2nnc(-c3ccc(Cl)c(S(=O)(=O)N4CCC(C)CC4)c3)o2)cc1OC | -1.95 | 2.46 | 1.81 | 1.04 | -0.984
Cn1nc(C(=O)N2CCCC(CN3CCOCC3)CC2)c2ccccc21 (stereo not given) | -5.86 | -0.807 | -3.11 | -2.92 | -11.7
COc1ccc(OC)c(CN2C(=O)c3cc4ccccc4n3CC2(C)C(=O)NCCC(C)C)c1 (stereo not given) | -2.07 | 1.48 | -1.65 | -8.49 | -9.53
Cc1cc2c(cc3n2CC(C)(C(=O)NC2CCCCCCC2)N(Cc2cccc(F)c2)C3=O)o1 (stereo not given) | -1 | 3.24 | 3.17 | -0.622 | -0.202
CCn1cc(S(=O)(=O)N2CC(N(C3CCOCC3)S(C)(=O)=O)C2)cn1 | -5.42 | -9.57 | -2.2 | -11.9 | -5.97
O=C(C[C@@H]1O[C@H](CNC(=O)C2CC2)[C@@H](O)[C@H]1O)Nc1ccccc1 | -5.07 | -8.17 | -2.57 | -7.7 | -3.39
O=S(=O)(c1ccccc1)c1nnn2c1nc(NCc1ccc(F)cc1)c1ccccc12 | -6.44 | 1.37 | -3.61 | -7.25 | -7.11
COc1ccc(CCN2C(=O)c3cc4ccccc4n3CC2(C)C(=O)NCc2ccccc2OC)c(OC)c1 (stereo not given) | 7.12 | 0.019 | 8.94 | 11.2 | 3.37
Fc1ccc(C2Cn3cnc(-c4nc(-c5ccsc5)no4)c3CO2)cc1 (stereo not given) | -8.75 | -6.73 | -4.96 | -16.2 | -24.4
CC(Nc1nc2c(S(=O)(=O)c3ccc(Cl)cc3)nnn2c2ccccc12)c1ccccc1 (stereo not given) | -1.55 | 0.743 | 1.72 | 5.76 | -6.04
CCCN1C(=O)c2c(C(=O)Nc3c(C)cccc3C)ncn2CC1(C)C(=O)NCc1ccc(OC)cc1 (stereo not given) | -0.612 | 4.17 | 7.04 | 3.94 | 7.89
O=C(Cn1c(=O)n2nc(-c3cccc(F)c3)nc2c2ccccc21)N1CCN(c2ccccc2F)CC1 | 2.42 | 0 | -3.05 | -0.048 | -1.78
CC1CCN(c2cc(N3CCN(C)CC3)ccc2NC(=O)c2cc(C#N)c[nH]2)CC1 | 4.49 | 3.26 | 8.24 | -10.8 | 2.79
CC(C)(O)CC(CO)NC(=O)CC(O)CC(=O)Cc1ccccc1 (stereo not given) | 2.4 | -4.01 | 7.26 | -12.3 | -4.06
CC(C)OCCCn1c(=O)c2ccccc2n2c(CCC(=O)NC3CCN(Cc4ccccc4)CC3)nnc12 | -9.97 | 0.266 | -22.2 | 11.6 | 3.9
c1ccc(C(c2ccccc2)N2CCN(Cc3nc(-c4ccccn4)no3)CC2)cc1 | -1.31 | -1.53 | 0.714 | -21.8 | -2.64
O=C(O)c1cc(-c2cccc(CO)c2)cc(S(=O)(=O)NC2CCCC2)c1 | -1.62 | 1.49 | 1.56 | -2.09 | 1.53
COc1ccc(NC(=O)N[C@H]2C[C@@H](C(=O)N[C@@H](Cc3cccs3)C(N)=O)N(C(=O)CSC)C2)cc1 | -4.46 | -3.6 | -0.27 | -6.78 | -20.1
